# Source: the supplement of paper PMC8728848
# Some of the results follow.
# What was measured:
# Experiment in all cases: glycan array binding signal (z-score within array); higher = stronger binding
# Conditions in all cases: glycan notation: IUPAC condensed, linker removed
# [1] = molecular target: Gal(b1-4)GalNAc(b1-3)[Fuc(a1-2)]Gal(b1-4)GlcNAc
# Summary of the method: (§1)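 Columns mapping to the same glycan were averaged after glycan names were converted to IUPAC-condensed notation. The data come from 3228 arrays in the Consortium for Functional Glycomics database, limited to those with an available protein sequence. Binding is reported as a within-array Z-score averaged across arrays of one protein sequence and across linkers.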
# [2] = molecular target: Gal(b1-4)Glc
# Summary of the method: as §1
# [3] = molecular target: Gal(b1-4)Glc6S
# Summary of the method: as §1
# [4] = molecular target: Gal(b1-4)GlcNAc
# Summary of the method: as §1
# [5] = molecular target: Gal(b1-4)GlcNAc(a1-6)Gal(b1-4)GlcNAc
# Summary of the method: as §1
# [6] = molecular target: Gal(b1-4)GlcNAc(b1-2)Man
# Summary of the method: as §1
# [7] = molecular target: Gal(b1-4)GlcNAc(b1-2)Man(a1-3)Man(b1-4)GlcNAc(b1-4)GlcNAc
# Summary of the method: as §1
# [8] = molecular target: Gal(b1-4)GlcNAc(b1-2)Man(a1-3)[Gal(b1-4)GlcNAc(b1-2)Man(a1-6)]Man(b1-4)GlcNAc(b1-4)GlcNAc
# Summary of the method: as §1
# [9] = molecular target: Gal(b1-4)GlcNAc(b1-2)Man(a1-3)[Gal(b1-4)GlcNAc(b1-2)Man(a1-6)]Man(b1-4)GlcNAc(b1-4)[Fuc(a1-6)]GlcNAc
# Summary of the method: as §1
# [10] = molecular target: Gal(b1-4)GlcNAc(b1-2)Man(a1-3)[Gal(b1-4)GlcNAc(b1-2)Man(a1-6)][Gal(b1-4)GlcNAc(b1-4)]Man(b1-4)GlcNAc(b1-4)[Fuc(a1-6)]GlcNAc
# Summary of the method: as §1
# [11] = molecular target: Gal(b1-4)GlcNAc(b1-2)Man(a1-3)[Gal(b1-4)GlcNAc(b1-2)Man(a1-6)][GlcNAc(b1-4)]Man(b1-4)GlcNAc(b1-4)[Fuc(a1-6)]GlcNAc
# Summary of the method: as §1
# [12] = molecular target: Gal(b1-4)GlcNAc(b1-2)Man(a1-3)[GlcNAc(b1-2)Man(a1-6)]Man(b1-4)GlcNAc(b1-4)GlcNAc
# Summary of the method: as §1
# [13] = molecular target: Gal(b1-4)GlcNAc(b1-2)Man(a1-3)[GlcNAc(b1-4)][Gal(b1-4)GlcNAc(b1-2)Man(a1-6)]Man(b1-4)GlcNAc(b1-4)GlcNAc
# Summary of the method: as §1
# [14] = molecular target: Gal(b1-4)GlcNAc(b1-2)Man(a1-3)[Man(a1-6)]Man(b1-4)GlcNAc(b1-4)GlcNAc
# Summary of the method: as §1
# [15] = molecular target: Gal(b1-4)GlcNAc(b1-2)Man(a1-6)Man(b1-4)GlcNAc(b1-4)GlcNAc
# Summary of the method: as §1
# [16] = molecular target: Gal(b1-4)GlcNAc(b1-2)Man(a1-6)[GlcNAc(b1-2)Man(a1-3)]Man(b1-4)GlcNAc(b1-4)GlcNAc
# Summary of the method: as §1
# [17] = molecular target: Gal(b1-4)GlcNAc(b1-2)Man(a1-6)[Man(a1-3)]Man(b1-4)GlcNAc(b1-4)GlcNAc
# Summary of the method: as §1
# [18] = molecular target: Gal(b1-4)GlcNAc(b1-2)[Gal(b1-4)GlcNAc(b1-4)]Man(a1-3)[Gal(b1-4)GlcNAc(b1-2)Man(a1-6)]Man(b1-4)GlcNAc(b1-4)GlcNAc
# Summary of the method: as §1
# [19] = molecular target: Gal(b1-4)GlcNAc(b1-2)[Gal(b1-4)GlcNAc(b1-4)]Man(a1-3)[Gal(b1-4)GlcNAc(b1-2)[Gal(b1-4)GlcNAc(b1-6)]Man(a1-6)]Man(b1-4)GlcNAc(b1-4)GlcNAc
# Summary of the method: as §1
# [20] = molecular target: Gal(b1-4)GlcNAc(b1-2)[Gal(b1-4)GlcNAc(b1-4)]Man(a1-3)[GlcNAc(b1-4)][Gal(b1-4)GlcNAc(b1-2)Man(a1-6)]Man(b1-4)GlcNAc(b1-4)GlcNAc
# Summary of the method: as §1
# [21] = molecular target: Gal(b1-4)GlcNAc(b1-2)[Gal(b1-4)GlcNAc(b1-4)]Man(a1-3)[GlcNAc(b1-4)][Gal(b1-4)GlcNAc(b1-2)[Gal(b1-4)GlcNAc(b1-6)]Man(a1-6)]Man(b1-4)GlcNAc(b1-4)GlcNAc
# Summary of the method: as §1
# [22] = molecular target: Gal(b1-4)GlcNAc(b1-2)[Gal(b1-4)GlcNAc(b1-6)]Man(a1-6)[Gal(b1-4)GlcNAc(b1-2)Man(a1-3)]Man(b1-4)GlcNAc(b1-4)GlcNAc
# Summary of the method: as §1
binder,measurement,setting,value
"EPL1 (Trichoderma atroviride), A0PCX2 (protein) MQLSNLFKLALFTAAVSADTVSYDTGYDDASRSLTVVSCSDGTNGLITRYHWQTQGQIPRFPYIGGAQAVAGWNSPNCGTCWKLTYSGKTIYVLAIDHTAAGFNIGLDAMNALTNGNAVALGRVSATASQVAVSNCGL",glycan array binding signal (z-score),[1],-0.032
same,glycan array binding signal (z-score),[2],-0.231
same,glycan array binding signal (z-score),[3],-0.064
same,glycan array binding signal (z-score),[4],-0.107
same,glycan array binding signal (z-score),[5],-0.176
same,glycan array binding signal (z-score),[6],-0.089
same,glycan array binding signal (z-score),[7],-0.491
same,glycan array binding signal (z-score),[8],-0.15
same,glycan array binding signal (z-score),[9],0.06
same,glycan array binding signal (z-score),[10],-0.401
same,glycan array binding signal (z-score),[11],0.122
same,glycan array binding signal (z-score),[12],-0.496
same,glycan array binding signal (z-score),[13],-0.52
same,glycan array binding signal (z-score),[14],0.704
same,glycan array binding signal (z-score),[15],-0.711
same,glycan array binding signal (z-score),[16],0.321
same,glycan array binding signal (z-score),[17],-0.327
same,glycan array binding signal (z-score),[18],0.026
same,glycan array binding signal (z-score),[19],0.128
same,glycan array binding signal (z-score),[20],-0.305
same,glycan array binding signal (z-score),[21],-0.32
same,glycan array binding signal (z-score),[22],0.245
